Read counts are not given, so values of variants with three or more changes are uncertain.
B1: LINE1-full (parent)
chain: UACGUAGGUGGUUUUCCCCUGAUAGUGCUAAGGGGGCCUGGAAGUUUGGACUGGGCAGAGCUCAACACAGCGUGGCAAAGUGGCUGUGGCUAGACUGCCUCUCUGGAUUCCUCGUCACUCAGCAGGGCAUCUCUGAGAGAAAUGCC

Variants of: B1
Experiment: self-cleavage, relative activity (ratio to wild type); higher = more cleavage; in vitro, sequencing; the parent is a self-cleaving ribozyme

Row | Variant | self-cleavage
1 | C18A U81A A129G A138G | 2.41
2 | A64U U102C U115C A117G A140G | 0
3 | A43G U62C A107U | 0.03
4 | C16A U39C A77U U115C | 0.92
5 | U26C A64U A65G A77U U87A G137A | 0.1
6 | G53U U87A A117U | 0.12
7 | U9A U20C U85C U108C A136G A142G | 0
8 | A6U U52G A107G | 0
9 | U20C A24G A42G G70U U100C A129G | 0
10 | U14C A31U U39A U132C | 1.62
11 | U52A U91A A124U | 0.63
12 | U26A U91C A117U A129G A138G A140G | 0
13 | C3U U9A A117U | 1.34
14 | A42U U62C A124U | 0.05
15 | U29C U39A A57G U130C U134A | 0
16 | G72A U85A A124G | 0.02
17 | G33A A50G A78U U109C | 1.18
18 | A42G U62C C90G U132C U143C | 0.07
19 | U20C U39C A57U G127A U143A | 0.11
20 | A2G U62C A78C U115C | 0
21 | A6G A64G G106A U115C | 0.69
22 | A92G C99U U115C G135A | 0.05
23 | G34A U46A G49A | 1.28
24 | A22U U62C G122A | 0.04

Row | Variant | self-cleavage
25 | U45G U85G U96A G127C A129U | 0.02
26 | U47C A94G U115C | 1.31
27 | U15C U45C A121U A136G G144C | 1.47
28 | G72A U102G A138G U143C | 2.12
29 | U14C G33A A94C | 0.23
30 | G35A A94U G122U | 0.17
31 | A43U U119C G125A | 1.18
32 | U1C U13A U52C U81A U102C | 0.71
33 | A77G C118U A124G | 1.26
34 | U29C G83A A140G | 0.94
35 | G35A U62C U108A A138U | 0.02
36 | C66G U96C U102A C103U U115C | 0.08
37 | U52A C99G U119C A140U | 1.33
38 | U45C U46C A79G U87A | 0.16
39 | U23C A69G A142G | 1.62
40 | U12G U15C G80U U115C C128U | 1.36
41 | C37A U47G A64U A124G | 0.15
42 | G72A A94G A107G | 0.27
43 | U13C G41A U62C | 0.06
44 | U46C U73A A129C | 2.3
45 | U73C U87A A136G A142G | 0.3
46 | U9A C19U U26C U29C A79G | 0
47 | A31G U130A A136G | 1.57
48 | U73C C120U A138U U143A | 1.62

Row | Variant | self-cleavage
49 | U13C U115C A124G | 0.56
50 | G33A A77U A107U | 0.62
51 | U13G A57G A69C U130C | 0.31
52 | C3U U96C A136G | 0
53 | U14A U62C U73C | 0
54 | G75C U119A A136G | 0.65
55 | U14C A42G A50C U134A | 0.38
56 | U62C A94U U102C | 0.04
57 | G7A A30U A92C U112C U143A | 0
58 | U15A A79G A124U | 1.39
59 | A94G U115A U132C | 0.8
60 | A57C U81A A136G | 0.07
61 | A69G U132A U134G | 0.4
62 | G44A A57G U134A | 0.84
63 | U20C G53U A92G A121G | 0.07
64 | U46A A92G U96A | 0.1
65 | U39C U52C U81A C103U | 0.04
66 | U12C C28U A64G | 0.27
67 | A79G U108C A142G | 2.4
68 | U14C A92U U130A | 1.32
69 | U15A G25C U102A | 1.45
70 | U62C U96C U108C | 0
71 | A43G A59G G86A U102C | 0.1
72 | U15C U20C A22G A117G | 2.63

Row | Variant | self-cleavage
73 | G41A A42U A94U | 0.1
74 | A69G U108C U112A A140G | 1.34
75 | U46C U104G C146A | 1.84
76 | U20C U62C U119C U132C | 0
77 | U46A U47A U96A U104A U115C | 0.05
78 | A2G G58U A69C A79U U115A A141G | 0.23
79 | G82A U112A A124G G125U | 1.15
80 | U1A A2G U134C A141G | 2.7
81 | A57G A107G G122A | 0.61
82 | U14C U108A A142G | 0.97
83 | U14A A43U A94G | 0.26
84 | A2U U39A U62C U96C A121G U132C | 0
85 | U5C U87C U100C U102A | 0
86 | U1C U45C C71U A142G | 0.88
87 | U12G A50C U112A A117G | 1.53
88 | U39G A136U A140G | 0.32
89 | G7C U130C U134C | 1.59
90 | U1C A124G A138G | 0.91
91 | A42C U47A G49A A69U | 0.05
92 | U12A A94G U102C U134A A142G | 0
93 | U29C A77G C118U U119A | 2.41
94 | A50G U73A U112A U143A | 0.72
95 | U13C U15C A42U U87C U100C | 0.52
96 | U47A U62G A77G A141G | 0.07

Row | Variant | self-cleavage
97 | U12C U15C A42U A124U U143C | 0.66
98 | G74A U87C U104C | 0.21
99 | U52A U104C U115C | 2.9
100 | G27A A59U U104C | 0.59
101 | G4U A30G A64G | 0.5
102 | U1C U46A A69G A117G A140G | 0.24
103 | U9G A79G U85C | 0.57
104 | A31U C99A A141G | 0.34
105 | U14C U26C U108C A142G | 1.75
106 | U87C U108C U132G | 0
107 | U52A U130C A140G | 1.34
108 | U9C A57U G72A U73A U109C A142G | 0.08
109 | U14C U46C G54A C116A U134A | 0.92
110 | A59G U100C U130C A136U A138G | 0
111 | U13C U39C U47C A57G C116U C128U | 0
112 | U9G G32A C131A A140U A142G | 1.73
113 | A2G U9C U15C U52A A57U | 0.2
114 | A67U A124G U134C | 0.09
115 | U13A A94G U104C A121U | 0.34
116 | A30G U39A C76A U100C U115C A117G U132A | 1.02
117 | U5C G80C U115A U119C | 0.48
118 | U112C A141G A142G | 0.84
119 | A69G U85C A140G | 1.67
120 | G54A A69C U102C | 0.06

Row | Variant | self-cleavage
121 | U9C U13C A57U U85A | 0.64
122 | G74A A77G A78G U100A | 0.28
123 | U15C G34A U62A U130C | 0
124 | A57G C84U U100A | 0.04
125 | A22G C38U A77G U143C | 1.84
126 | A6G U62C G86A U119A | 0.1
127 | U12C C18U U91C | 0.45
128 | C16U A43G A142G | 1.51
129 | U12C G44A U62C | 0.18
130 | A24G A43G U62C C123U | 0.19
131 | U39A U47C A59U A77U | 0.92
132 | C18U G36C U47C U109C U119C | 1.72
133 | U14C A59G C113G U119C U134C | 0.13
134 | U20C A79G U109C | 2.18
135 | U96C U132C C146U | 0
136 | U47C A59G A69U U85A A142G | 0.08
137 | U1C U29A A31G | 0
138 | U9A U104A U119C U130C | 2.19
139 | A6G U96C A107G A117U C131G | 0.54
140 | U46C G54A U91C | 0.09
141 | G40A A57U G60A U134C A142G | 0.02
142 | U5C U15C U39A A142G | 0.92
143 | A22U G75C A79G | 0.59
144 | A6U U104A A124G | 0.33

Row | Variant | self-cleavage
145 | A64C A138G A140U | 0.26
146 | A30U G80A U115C U130C | 2.88
147 | C68U U130C U143C C146A | 0.3
148 | U13C U47C A64G | 0
149 | A78G U102C A121G | 1.48
150 | G33A U47A U87G | 0.29
151 | A64G A65U A117G | 0.2
152 | A57C A79U U119C A138G | 0.21
153 | U15C U62C A142G | 0.13
154 | U9C A42G U132C | 1.15
155 | U73A U85C U112C | 0.11
156 | U9C A77G U109C | 2.94
157 | U47C A67U U134A A136G | 0.06
158 | C17U A57G G88A A124U | 0.05
159 | U1C A6G A67G | 0.32
160 | U9A U91A A92G | 0
161 | A50U A59G U87A | 0.02
162 | A24U U85A A136G | 0
163 | U9A C19U A24G U143C | 0.75
164 | A24U A57G G106U | 0.31
165 | U47A C66U U91C | 0.03
166 | U12C U62C U102C C120A A129G U132C | 0.13
167 | U15A U91A A142G | 0.52

Source: the RNAGym collection of RNA variant scans (doi:10.7554/elife.90254)
